This is one part of the list. The list includes weakly bound sequences.
The sequences below were run against T1, MBP-FoxP3dN (UniProt Q99JB6) (assay: PD-seq (MBP pull-down with sequencing)). Conditions: 20 mM Tris-HCl pH 7.5, 100 mM NaCl, 1.5 mM MgCl2, 0.4 uM protein, 0.1 uM dsDNA library, 30 min, room temperature, amylose pull-down; high values mean tight binding; double strand, one strand shown.
T1 sequence: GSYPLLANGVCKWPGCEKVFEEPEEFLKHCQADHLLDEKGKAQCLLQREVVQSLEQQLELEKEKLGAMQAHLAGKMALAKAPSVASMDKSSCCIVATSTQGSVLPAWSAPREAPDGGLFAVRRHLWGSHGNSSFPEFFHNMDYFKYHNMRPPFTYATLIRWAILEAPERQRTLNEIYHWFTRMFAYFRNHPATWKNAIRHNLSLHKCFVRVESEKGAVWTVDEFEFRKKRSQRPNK

| Sequence | binding signal (RPM ratio (pull-down/input)) |
| --- | --- |
| GATGATTGTTCTCCCAGCTGATGAATTACAAAGGTCGAGTAAACAAATTTTCCTAATCTTTCTGTTCAAGCGCCATCTAC | 0.27 |
| GATGATTGTTCTCCCAGCTGATGAATTAATTTCTTCGAGTAAACAAATTTTCCTAATCTTTCTGTTCAAGCGCCATCTAC | 0.745 |
| GATGATTGTTCTCCCAGCTGATGAATTTTAGACGTCGAGTAAACAAATTTTCCTAATCTTTCTGTTCAAGCGCCATCTAC | 0.314 |
| GATGATTGTTCTCCCAGCTGATGAATTGACATCATCGAGTAAACAAATTTTCCTAATCTTTCTGTTCAAGCGCCATCTAC | 0.976 |
| GATGATTGTTCTCCCAGCTGATGAATTCCTGTTATCGAGTAAACAAATTTTCCTAATCTTTCTGTTCAAGCGCCATCTAC | 0.996 |
| GATGATTGTTCTCCCAGCTGATGAATTGTGCAAATCGAGTAAACAAATTTTCCTAATCTTTCTGTTCAAGCGCCATCTAC | 1.11 |
| GATGATTGTTCTCCCAGCTGATGAATTCACTGGATCGAGTAAACAAATTTTCCTAATCTTTCTGTTCAAGCGCCATCTAC | 0.201 |
| GATGATTGTTCTCCCAGCTGATGAATTCGAAGCATCGAGTAAACAAATTTTCCTAATCTTTCTGTTCAAGCGCCATCTAC | 0.636 |
| GATGATTGTTCTCCCAGCTGATGAATTAAGGCGGTCGAGTAAACAAATTTTCCTAATCTTTCTGTTCAAGCGCCATCTAC | 0.609 |
| GATGATTGTTCTCCCAGCTGATGAATTTGGCGAGTCGAGTAAACAAATTTTCCTAATCTTTCTGTTCAAGCGCCATCTAC | 0.696 |
| GATGATTGTTCTCCCAGCTGATGAATTTACAAGCTCGAGTAAACAAATTTTCCTAATCTTTCTGTTCAAGCGCCATCTAC | 0.464 |
| GATGATTGTTCTCCCAGCTGATGAATTAGAGATTTCGAGTAAACAAATTTTCCTAATCTTTCTGTTCAAGCGCCATCTAC | 0.312 |
| GATGATTGTTCTCCCAGCTGATGAATTGTCCTACTCGAGTAAACAAATTTTCCTAATCTTTCTGTTCAAGCGCCATCTAC | 0.368 |
| GATGATTGTTCTCCCAGCTGATGAATTTGTGACATCGAGTAAACAAATTTTCCTAATCTTTCTGTTCAAGCGCCATCTAC | 1.66 |
| GATGATTGTTCTCCCAGCTGATGAATTTTACGAGTCGAGTAAACAAATTTTCCTAATCTTTCTGTTCAAGCGCCATCTAC | 0.256 |
| GATGATTGTTCTCCCAGCTGATGAATTCAGATATTCGAGTAAACAAATTTTCCTAATCTTTCTGTTCAAGCGCCATCTAC | 0.741 |
| GATGATTGTTCTCCCAGCTGATGAATTGTAGCTTTCGAGTAAACAAATTTTCCTAATCTTTCTGTTCAAGCGCCATCTAC | 1.42 |
| GATGATTGTTCTCCCAGCTGATGAATTATTGAGCTCGAGTAAACAAATTTTCCTAATCTTTCTGTTCAAGCGCCATCTAC | 0.368 |
| GATGATTGTTCTCCCAGCTGATGAATTTGCCAATTCGAGTAAACAAATTTTCCTAATCTTTCTGTTCAAGCGCCATCTAC | 0.511 |
| GATGATTGTTCTCCCAGCTGATGAATTGTACTCTTCGAGTAAACAAATTTTCCTAATCTTTCTGTTCAAGCGCCATCTAC | 0.51 |

| Sequence | binding signal (RPM ratio (pull-down/input)) |
| --- | --- |
| GATGATTGTTCTCCCAGCTGATGAATTTTGCGTATCGAGTAAACAAATTTTCCTAATCTTTCTGTTCAAGCGCCATCTAC | 3.74 |
| GATGATTGTTCTCCCAGCTGATGAATTCTTGCATTCGAGTAAACAAATTTTCCTAATCTTTCTGTTCAAGCGCCATCTAC | 6.02 |
| GATGATTGTTCTCCCAGCTGATGAATTTTCTAATTCGAGTAAACAAATTTTCCTAATCTTTCTGTTCAAGCGCCATCTAC | 0.263 |
| GATGATTGTTCTCCCAGCTGATGAATTTAGAGGCTCGAGTAAACAAATTTTCCTAATCTTTCTGTTCAAGCGCCATCTAC | 0.583 |
| GATGATTGTTCTCCCAGCTGATGAATTAATTATCTCGAGTAAACAAATTTTCCTAATCTTTCTGTTCAAGCGCCATCTAC | 1.7 |
| GATGATTGTTCTCCCAGCTGATGAATTTTCATGCTCGAGTAAACAAATTTTCCTAATCTTTCTGTTCAAGCGCCATCTAC | 0.372 |
| GATGATTGTTCTCCCAGCTGATGAATTTCAACCGTCGAGTAAACAAATTTTCCTAATCTTTCTGTTCAAGCGCCATCTAC | 0.243 |
| GATGATTGTTCTCCCAGCTGATGAATTTTCCCGATCGAGTAAACAAATTTTCCTAATCTTTCTGTTCAAGCGCCATCTAC | 0.167 |
| GATGATTGTTCTCCCAGCTGATGAATTACCGAGGTCGAGTAAACAAATTTTCCTAATCTTTCTGTTCAAGCGCCATCTAC | 0.257 |
| GATGATTGTTCTCCCAGCTGATGAATTTCGGATGTCGAGTAAACAAATTTTCCTAATCTTTCTGTTCAAGCGCCATCTAC | 0.407 |
| GATGATTGTTCTCCCAGCTGATGAATTTATGACCTCGAGTAAACAAATTTTCCTAATCTTTCTGTTCAAGCGCCATCTAC | 0.888 |
| GATGATTGTTCTCCCAGCTGATGAATTTCAAGAATCGAGTAAACAAATTTTCCTAATCTTTCTGTTCAAGCGCCATCTAC | 0.178 |
| GATGATTGTTCTCCCAGCTGATGAATTGAGCCAATCGAGTAAACAAATTTTCCTAATCTTTCTGTTCAAGCGCCATCTAC | 0.527 |
| GATGATTGTTCTCCCAGCTGATGAATTTGAACTGTCGAGTAAACAAATTTTCCTAATCTTTCTGTTCAAGCGCCATCTAC | 0.368 |
| GATGATTGTTCTCCCAGCTGATGAATTACCGATCTCGAGTAAACAAATTTTCCTAATCTTTCTGTTCAAGCGCCATCTAC | 0.354 |
| GATGATTGTTCTCCCAGCTGATGAATTATAAGTATCGAGTAAACAAATTTTCCTAATCTTTCTGTTCAAGCGCCATCTAC | 0.637 |
| GATGATTGTTCTCCCAGCTGATGAATTCATATTGTCGAGTAAACAAATTTTCCTAATCTTTCTGTTCAAGCGCCATCTAC | 1.06 |
| GATGATTGTTCTCCCAGCTGATGAATTCCGCTTTTCGAGTAAACAAATTTTCCTAATCTTTCTGTTCAAGCGCCATCTAC | 3.18 |
| GATGATTGTTCTCCCAGCTGATGAATTACACGCGTCGAGTAAACAAATTTTCCTAATCTTTCTGTTCAAGCGCCATCTAC | 0.847 |
| GATGATTGTTCTCCCAGCTGATGAATTGCAGCGCTCGAGTAAACAAATTTTCCTAATCTTTCTGTTCAAGCGCCATCTAC | 0.649 |

Reference: PMC12820563
